Measurements taken from PubChem BioAssay AID2675 (National Center for Advancing Translational Sciences (NCATS), 2010).
Out of some 280,000 compounds screened, about 100 (0.036%) were called active. This list was built around the results that the source calls inconclusive (neither active nor inactive); the mix of calls is not that of the screen. Calls come from the whole dose curve; as a rule, active = well fitted inhibition curve with a large enough effect in the signal ratio, with a control signal flat (not every such curve was filed as active); inconclusive = small, poorly fitted or top-dose-only effect, or effect the other way, or a change in a side signal; inactive = no such curve, though single readings can be large or run the other way; the % refers to the signal ratio. Potencies beside an inconclusive call are fits to weak or partial responses and may not hold up. A note “side channel” means that the fit belongs to a control or component signal, not to the main read-out.

Biological target: Muscleblind-like protein 1 (Homo sapiens) (UniProt Q9NR56)
Chain of UniProt Q9NR56 (Q9NR56 whole entry, looked up): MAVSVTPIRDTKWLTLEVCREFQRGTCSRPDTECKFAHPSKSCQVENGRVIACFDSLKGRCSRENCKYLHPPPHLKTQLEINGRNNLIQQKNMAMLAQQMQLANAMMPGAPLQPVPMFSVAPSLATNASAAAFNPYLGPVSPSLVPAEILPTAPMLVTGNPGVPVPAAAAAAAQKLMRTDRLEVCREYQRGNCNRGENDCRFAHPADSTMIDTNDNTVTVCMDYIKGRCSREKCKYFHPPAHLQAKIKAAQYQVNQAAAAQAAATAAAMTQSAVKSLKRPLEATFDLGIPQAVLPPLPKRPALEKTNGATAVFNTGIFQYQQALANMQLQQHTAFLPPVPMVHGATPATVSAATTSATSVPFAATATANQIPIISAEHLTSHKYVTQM
Assay: qHTS Assay for Inhibitors of MBNL1-poly(CUG) RNA binding
Conditions: TR-FRET MBNL1-His/biotin-(CUG)12 binding, 665/545 ratio; series mostly up to 57.5 µM
Method in brief: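 His-tagged MBNL1 binding to biotinylated (CUG)12 RNA was measured by TR-FRET using terbium anti-His antibody (0.055 ng/ul final) and streptavidin-XL665 (5 nM final). Compounds were titrated 92 nM to 58 uM; 60 min at room temperature.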
Potency is the fitted concentration of half-maximal effect; tags give direction and shape of the fitted curve or compound fluorescence and quenching.

Q: With `O=C(Nc1ccccc1C(=O)O)c1ccc(NC(=O)C2CC2)cc1` as the compound, how does the Potency read?
A: inconclusive: 39.8 µM [quencher, single point]

Q: How did the Potency turn out when `O=C(NCc1ccccc1)c1ccc(Cl)cc1[N+](=O)[O-]` was run?
A: inconclusive: 14.1 µM [quencher, side channel, partial curve]

Q: With `CCc1nnc(NS(=O)(=O)c2ccc(N/C=C\C(=O)c3ccc(F)cc3)cc2)s1` as the compound, how does the Potency read?
A: inconclusive: 14.1 µM [quencher, side channel, partial curve]

Q: `COc1ccc(CNC(=O)C(C#N)c2nc3ccccc3nc2N2CCCC2)cc1` (stereo not drawn) was tested. Which Potency did it give?
A: inactive

Q: Which Potency does the source give for `NC(=O)CC(NC(=O)c1ccccc1)c1ccc(N2CCc3ccccc3C2)c([N+](=O)[O-])c1` (stereo not drawn) here?
A: inconclusive: 31.6 µM [quencher, side channel, single point]

Q: With `COc1ccc(C2=NS(=O)(=O)N(C)C(C(=O)Nc3cc(OC)c(OC)c(OC)c3)=C2)cc1` as the compound, how does the Potency read?
A: inconclusive: 12.6 µM [quencher, side channel, partial curve]

Q: For `COc1cc(C(=O)Oc2ccc(/C=N/NC(=O)c3ccncc3)cc2)cc(OC)c1OC`, which Potency is on record?
A: inconclusive: 28.2 µM [quencher, side channel, single point]

Q: For `CCn1c(C)cc(/C=C2/SC(=O)N(CC(=O)N3CCCC3)C2=O)c1C`, which Potency is on record?
A: inconclusive: 12.6 µM [quencher, side channel, partial curve]

Q: Which Potency does the source give for `COc1cc(CN2CCC(Cc3ccccc3)CC2)c([N+](=O)[O-])cc1OC` here?
A: inconclusive: 15.8 µM [quencher, side channel, partial curve]

Q: `O=C(N/N=C/c1ccc(N2CCOCC2)cc1)c1ccc(O)cc1` was tested. Which Potency did it give?
A: inconclusive: 22.4 µM [quencher, side channel, partial curve]

Q: With `O=C(NCc1ccccc1)c1cc2ccc(O)cc2oc1=O` as the compound, how does the Potency read?
A: inconclusive: 39.8 µM [quencher, side channel, single point]

Q: How did the Potency turn out when `O=C(c1cccc([N+](=O)[O-])c1)c1ccc2c(c1)OCCOCCOCCO2` was run?
A: inconclusive: 11.2 µM [quencher, side channel, partial curve]

Q: `COc1cccc(N2CC(=O)N(NC(=O)c3sc4nc(C)cc(C)c4c3N)CC2=O)c1` was tested. Which Potency did it give?
A: inconclusive: 25.1 µM [quencher, side channel, single point]

Q: For `CCc1cc[n+](-c2nc3ccccc3nc2[N-]S(=O)(=O)c2ccc(Br)s2)cc1`, which Potency is on record?
A: inconclusive: 3.98 µM [quencher, side channel, partial curve]

Q: With `O=C(NNC(=O)c1ccccn1)c1cccc([N+](=O)[O-])c1` as the compound, how does the Potency read?
A: inconclusive: 39.8 µM [quencher, single point]

Q: How did the Potency turn out when `CN1CCN(S(=O)(=O)c2ccc(NC(=S)NC(=O)C3CCC3)cc2)CC1` was run?
A: inconclusive: 100 µM [inhibitor, partial curve, poor fit]

Q: Which Potency does the source give for `CNS(=O)(=O)c1cccc(C(=O)OCC(=O)c2cc3ccccc3o2)c1` here?
A: inconclusive: 12.6 µM [quencher, side channel, partial curve]

Q: `COc1cc(COCC(O)CN2CCN(CCN3C(=O)c4cccc5cccc(c45)C3=O)CC2)cc(OC)c1OC` (stereo not drawn) was tested. Which Potency did it give?
A: inconclusive: 7.08 µM [quencher, side channel, partial curve]

Q: How did the Potency turn out when `Nc1nc(NCCOCCO)nc(Nc2cccc(F)c2)c1[N+](=O)[O-]` was run?
A: inconclusive: 28.2 µM [quencher, side channel, partial curve]

Q: With `Cc1cc2nccc(-c3ccc(Cl)c([N+](=O)[O-])c3)n2n1` as the compound, how does the Potency read?
A: inconclusive: 12.6 µM [quencher, side channel, partial curve]

Q: For `CC(C)Oc1ccc(/C(O)=C2/C(=O)C(=O)N(CCN(C)C)C2c2cccs2)cc1` (stereo not drawn), which Potency is on record?
A: inconclusive: 28.2 µM [quencher, side channel, partial curve]

Q: `CCc1cc[n+](-c2nc([O-])sc2C=O)cc1` was tested. Which Potency did it give?
A: inconclusive: 12.6 µM [quencher, side channel, partial curve]

Q: `Cc1nc(NC(=O)CSc2cc(C)c3ccccc3n2)c(Cl)cc1Cl` was tested. Which Potency did it give?
A: inconclusive: 39.8 µM [fluorescent, side channel, partial curve]

Q: Which Potency does the source give for `COc1ccc(/C=C/c2onc(C)c2S(=O)(=O)N2CCC(C(=O)N3CCCCCC3)CC2)cc1` here?
A: inconclusive: 17.8 µM [quencher, side channel, partial curve]

Q: Which Potency does the source give for `N#C/C(=C/c1ccc(N2CCOCC2)o1)C(=O)NC1CCCCC1` here?
A: inconclusive: 12.6 µM [quencher, side channel, partial curve]

Q: With `Oc1c(N=Nc2ccccc2)sc2ccccc12` as the compound, how does the Potency read?
A: inconclusive: 4.47 µM [quencher, side channel, partial curve]

Q: With `Cc1nnc(Oc2ccc([N+](=O)[O-])cc2)c2ccccc12` as the compound, how does the Potency read?
A: inconclusive: 2.82 µM [quencher, full curve, poor fit]

Q: For `Cc1nn(-c2nnc(NC3CCCCC3)nn2)c(C)c1Br`, which Potency is on record?
A: inconclusive: 17.8 µM [quencher, side channel, partial curve]

Q: How did the Potency turn out when `O=C(Cn1c(O)c(/C=C2\C=Nc3ccccc32)sc1=O)N1CCOCC1` was run?
A: inconclusive: 10 µM [quencher, side channel, partial curve]

Q: How did the Potency turn out when `Nc1c(C(=O)NCC2CCCO2)sc2nc3c(c(-c4ccco4)c12)CC/C3=C\c1ccco1` (stereo not drawn) was run?
A: inconclusive: 14.1 µM [quencher, side channel, partial curve]

Q: For `O=C(O)c1cnn(-c2nc(-c3cccc([N+](=O)[O-])c3)cs2)c1C(F)(F)F`, which Potency is on record?
A: inconclusive: 31.6 µM [quencher, single point]

Q: How did the Potency turn out when `O=C(O)CC/C(=C\c1ccc(N2CCOCC2)c([N+](=O)[O-])c1)c1nc2ccccc2s1` was run?
A: inconclusive: 15.8 µM [quencher, side channel, partial curve]

Q: How did the Potency turn out when `NC(=O)CC(NC(=O)c1ccccc1)c1ccc(NCc2ccc(F)cc2)c([N+](=O)[O-])c1` (stereo not drawn) was run?
A: inconclusive: 14.1 µM [quencher, side channel, partial curve]
